Measurements reported in paper PMC6212790.
The other results are listed elsewhere or left out. At the low end of the ranking the order means little.

The sequences below were run against T1, GST-Rok (full length) (UniProt O34857) (assay: protein binding microarray). Settings: Rok is a gene silencer of Bacillus subtilis; high values mean tight binding; most listed sequences are background and not binding sites; double strand, one strand shown.
T1 sequence: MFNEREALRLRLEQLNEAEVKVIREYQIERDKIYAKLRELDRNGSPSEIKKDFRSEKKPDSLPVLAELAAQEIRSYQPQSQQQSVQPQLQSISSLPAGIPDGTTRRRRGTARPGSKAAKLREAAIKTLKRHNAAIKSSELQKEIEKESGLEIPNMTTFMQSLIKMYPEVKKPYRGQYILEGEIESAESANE
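Also: rank score from −0.5 (least bound) to 0.5 (best bound).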

| Sequence | binding signal |
| --- | --- |
| GAGTGGGA | -0.284 E-score |
| AAGAAACG | 0.0658 E-score |
| ACAACATG | 0.0426 E-score |
| ACATGGGC | 0.0493 E-score |
| CATTTGTA | 0.3 E-score |
| AAAGGCCA | -0.282 E-score |
| GTTAGAGA | 0.000885 E-score |
| CGGGCGCA | -0.236 E-score |
| CGAAACCA | -0.108 E-score |
| CCTTACGC | -0.189 E-score |
| AAAGCCGT | -0.122 E-score |
| GGCGTGTA | -0.0602 E-score |
| CGCTGAAG | -0.0962 E-score |
| AACCCTGT | -0.0674 E-score |
| ATCGGAAC | -0.0205 E-score |
| ACACGGCA | 0.0706 E-score |
| ATGTTCCC | 0.0433 E-score |
| ATGTGCCA | -0.0913 E-score |
| ACTCAAGC | 0.0263 E-score |
| AATAGTGA | 0.124 E-score |
| CTCGCTTA | -0.145 E-score |
| ATAATCTC | 0.161 E-score |
| CAGCCACA | -0.408 E-score |
| AAAAACCA | 0.119 E-score |
| ATAGCGGC | 0.0528 E-score |

| Sequence | binding signal |
| --- | --- |
| CACTGAGC | -0.138 E-score |
| CTCGATGA | 0.122 E-score |
| AAAAATCG | -0.0125 E-score |
| CACACATA | 0.0926 E-score |
| CTACTCTA | 0.168 E-score |
| CCTGTGCA | 0.0836 E-score |
| CAACGTCC | -0.22 E-score |
| AGGCACCA | -0.195 E-score |
| ACGACCCG | -0.313 E-score |
| AGCTTCGA | -0.0406 E-score |
| AGGCCCTG | -0.211 E-score |
| AATCTAGT | 0.377 E-score |
| CGTAAAAC | 0.00692 E-score |
| ACGGTCTA | 0.0646 E-score |
| GCACGGGA | -0.256 E-score |
| ATCTACAC | 0.348 E-score |
| CGGAAACA | 0.0802 E-score |
| CTAAGATA | 0.111 E-score |
| GTCACCAA | -0.00522 E-score |
| AATACCAC | 0.242 E-score |
| ATGCTAGG | -0.0212 E-score |
| CAAGCTGA | -0.187 E-score |
| GAAGGTTA | -0.0133 E-score |
| GAGTATCA | 0.0743 E-score |
| CGCTAGGA | -0.0379 E-score |

| Sequence | binding signal |
| --- | --- |
| AGGGGTCG | -0.41 E-score |
| AGTAACGC | 0.107 E-score |
| GCCTTCGA | -0.213 E-score |
| ACGTAACC | -0.21 E-score |
| CCGGAAAA | -0.0426 E-score |
| GGGCTAAC | -0.00447 E-score |
| AAGCGTTC | -0.218 E-score |
| CGAGATCC | 0.0734 E-score |
| AGCAAGTC | -0.205 E-score |
| GGGGGAGA | -0.238 E-score |
| GAGGAGAC | -0.267 E-score |
| AGTGTTAT | 0.145 E-score |
| TCCACAAA | 0.0863 E-score |
| AAAGTGAC | 0.0309 E-score |
| ATCCGGGA | -0.0797 E-score |
| GACTTAAC | 0.0786 E-score |
| AGAGTGCG | -0.14 E-score |
| ACTCACCC | -0.14 E-score |
| ACAGAATA | 0.143 E-score |
| ATATCCAA | 0.135 E-score |
| AATGATGG | 0.0224 E-score |
| CGACTTGA | 0.119 E-score |
| GAGTGAAC | -0.108 E-score |
| GGCGCGCC | -0.375 E-score |
| AAGTGAAG | -0.0614 E-score |

| Sequence | binding signal |
| --- | --- |
| GTAGATCA | 0.255 E-score |
| AACTACTA | 0.474 E-score |
| ACATTTGA | 0.0427 E-score |
| TCTGTGAA | -0.0561 E-score |
| AAGGTGCA | -0.13 E-score |
| ATCGAAGG | -0.188 E-score |
| CTGGGGGC | -0.401 E-score |
| GTAAGGAA | -0.159 E-score |
| ACAGTTAG | 0.194 E-score |
| GAATGGCA | 0.0076 E-score |
| AGAAACAT | 0.155 E-score |
| AAAGCCCC | -0.362 E-score |
| GGCTACTA | 0.015 E-score |
| ACTAGTTA | 0.44 E-score |
| AAGTCCCA | -0.198 E-score |
| AGTACGTA | 0.332 E-score |
| CTGCTAAA | -0.121 E-score |
| AGCAGATA | 0.131 E-score |
| GAGTGATC | -0.15 E-score |
| CTAAGGGC | -0.245 E-score |
| CGTTACCC | -0.276 E-score |
| GAAACCAC | 0.0661 E-score |
| AATGGCAT | 0.0869 E-score |
| GAACCGAA | -0.116 E-score |
| ACCGTTCG | -0.278 E-score |

| Sequence | binding signal |
| --- | --- |
| AAAAGCAA | -0.000488 E-score |
| AGCAAACA | -0.0161 E-score |
| ACCTCTGC | -0.0747 E-score |
| GCCACCAA | -0.0714 E-score |
| GTTCGCGA | -0.00446 E-score |
| TAAGCCCA | -0.183 E-score |
| CATGGTCC | -0.277 E-score |
| CTACGCGA | -0.00796 E-score |
| AGGTTCCC | -0.341 E-score |
| CTAAGTCA | 0.0393 E-score |
| AGACCAAT | -0.0485 E-score |
| ACATCTAA | 0.123 E-score |
| CTGTGCTC | -0.274 E-score |
| ACAGTAGG | 0.221 E-score |
| TCAACTGA | 0.0834 E-score |
| AACTATTA | 0.431 E-score |
| GCTCGACC | -0.197 E-score |
| AAAGGTAC | 0.223 E-score |
| CGCGCAGA | -0.0557 E-score |
| GACTGAAC | 0.0317 E-score |
| ATTTTCGC | 0.0459 E-score |
| GCATAAGC | -0.0954 E-score |
| GGGCGAAC | -0.258 E-score |
| CCGGACCA | -0.244 E-score |
| CGCCGTAG | -0.119 E-score |

| Sequence | binding signal |
| --- | --- |
| GCTCGTTA | -0.119 E-score |
| ATTTTACC | 0.351 E-score |
| AGGCTCAG | -0.242 E-score |
| ACTACCGA | 0.246 E-score |
| CAAGGCAG | -0.148 E-score |
| CAAATTGA | 0.0439 E-score |
| GTTATACA | 0.213 E-score |
| AGATCAGG | -0.0342 E-score |
| CCCTCAGG | -0.44 E-score |
| CCCAAATC | -0.143 E-score |
| ACCAGCCT | 0.00892 E-score |
| CCCGGCAG | -0.105 E-score |
| TCAGTACA | 0.141 E-score |
| ATCTCAAG | -0.081 E-score |
| GTTCTTGA | -0.0529 E-score |
| GGAATTCA | -0.0849 E-score |
| TACAGTGA | 0.0355 E-score |
| TCCTACCA | 0.175 E-score |
| ATCTGCGG | -0.237 E-score |
| CTAGGCAC | -0.0526 E-score |
| AAAGTCAC | -0.0982 E-score |
| CAGGGTCC | -0.336 E-score |
| CCTTTCCG | -0.184 E-score |
| CCAGAATC | -0.034 E-score |
| CCCCCTTA | -0.398 E-score |

| Sequence | binding signal |
| --- | --- |
| AACAGAGC | 0.0781 E-score |
| AGCCAGCG | -0.123 E-score |
| CGGACCGC | -0.217 E-score |
| AGCGCATG | 0.0184 E-score |
| CTCTAGAA | 0.0532 E-score |
| AGATGGCG | 0.046 E-score |
| TAGTCAGA | -0.138 E-score |
| GAGAGTTA | 0.13 E-score |
| AACGGTTA | -0.137 E-score |
| ATAAGTCA | 0.16 E-score |
| GGGACCTA | -0.0617 E-score |
| CTCTACTA | 0.216 E-score |
| CGACCTTA | 0.0197 E-score |
| ATCGGCGC | -0.0302 E-score |
| ATCGACTA | 0.144 E-score |
| ACGGCGCA | -0.225 E-score |
| ATTTAACA | 0.223 E-score |
| CTAAGACA | -0.139 E-score |
| ATGGGAAC | -0.0776 E-score |
| GTATAAAA | 0.343 E-score |
| TGACCACA | -0.252 E-score |
| AAAAACGG | -0.143 E-score |
| ATCTGCAA | 0.08 E-score |
| GGCTGGAA | -0.115 E-score |
| ACAGCAGA | -0.111 E-score |

| Sequence | binding signal |
| --- | --- |
| TAAACGAA | -0.00162 E-score |
| GGGGTTGA | -0.324 E-score |
| AAGAGTGC | -0.116 E-score |
| AAATACTA | 0.454 E-score |
| TCACCCCA | -0.167 E-score |
| CTCGGAGA | -0.0958 E-score |
| CTCTATCA | -0.0321 E-score |
| CACGCGGC | -0.307 E-score |
| ATGGCATA | 0.0465 E-score |
| AGGTGCTA | -0.0307 E-score |
| CTCCCTGA | -0.357 E-score |
| ACTATCAC | 0.34 E-score |
| CAGTACCG | -0.00989 E-score |
| CTCCGACC | -0.373 E-score |
| TCTAATCA | -0.00524 E-score |
| GTGGCAAA | 0.0549 E-score |
| CAAAGCCG | -0.148 E-score |
| TCACCTCA | -0.21 E-score |
| AATCACAT | 0.174 E-score |
| GCCTGTGA | -0.0124 E-score |
| TCGGAGAA | 0.0242 E-score |
| AATCTTCC | 0.0657 E-score |
| AACCTTCC | -0.0451 E-score |
| CTTTCTAA | 0.162 E-score |
| CAAGCGGC | 0.0248 E-score |

| Sequence | binding signal |
| --- | --- |
| AGTGGCTA | -0.191 E-score |
| CGCCATCA | -0.202 E-score |
| GCGCACCA | -0.0364 E-score |
| ACAGTTGC | -0.0916 E-score |
| AGCTAAAG | -0.152 E-score |
| TAGCTCAA | 0.0254 E-score |
| TCGAGGCA | -0.0118 E-score |
| ACCAACAA | -0.105 E-score |
| GATACAGC | 0.0853 E-score |
| CAGAAGAC | -0.144 E-score |
| AAGGGCTC | -0.237 E-score |
| CATATGCG | 0.0597 E-score |
| CGGGGCGC | -0.268 E-score |
| AGTTTGCG | 0.256 E-score |
| CGTAGAGC | -0.115 E-score |
| AGTTCACA | 0.171 E-score |
| AACAATCC | 0.165 E-score |
| CTATGAAG | 0.0749 E-score |
| CTGACCAA | 0.0177 E-score |
